Test results published in the supplement of paper PMC3334620.
The full ranking holds about 33,000 sequences; the median of “E-score (-0.5 to 0.5)” is about -0.035, and the highest 2% start at about 0.34. The list shows a part of the results.

molecular target: T1, Mot3 (UniProt P54785); experiment: PBM E-score (8-mer binding enrichment) (E-score (-0.5 to 0.5)); higher = stronger / more preferred TF binding; most listed sequences are background and not binding sites; details: protein concentration: 200 nM; construct: GST-full length
T1 sequence: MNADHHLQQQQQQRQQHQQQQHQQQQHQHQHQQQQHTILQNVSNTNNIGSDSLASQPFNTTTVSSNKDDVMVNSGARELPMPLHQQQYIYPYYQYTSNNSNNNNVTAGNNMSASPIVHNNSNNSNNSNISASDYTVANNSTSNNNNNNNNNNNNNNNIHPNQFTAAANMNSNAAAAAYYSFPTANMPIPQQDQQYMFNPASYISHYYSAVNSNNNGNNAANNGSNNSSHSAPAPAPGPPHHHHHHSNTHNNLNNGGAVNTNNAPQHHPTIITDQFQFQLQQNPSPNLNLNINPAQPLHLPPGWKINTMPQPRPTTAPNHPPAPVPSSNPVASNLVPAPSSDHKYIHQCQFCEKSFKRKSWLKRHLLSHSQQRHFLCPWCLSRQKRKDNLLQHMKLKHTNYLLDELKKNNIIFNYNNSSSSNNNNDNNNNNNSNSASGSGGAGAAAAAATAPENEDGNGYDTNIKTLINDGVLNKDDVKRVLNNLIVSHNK
Method in brief: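 For each ungapped eight-base word taken together with its reverse complement, the Universal PBM Analysis Suite assigned an E-score. Binding data came from GST-tagged yeast transcription factors, applied at about 100-200 nM, on universal all-10-mer Agilent arrays made double-stranded by primer extension. Fluorescent anti-GST marked bound protein, and scans were normalised with masliner.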

Sequence | PBM E-score
GAGTCTGA | -0.305
TCATGTAA | 0.414
AAATGCGT | 0.0791
AGCGGCCC | -0.366
AGAGTCTG | -0.213
ACGCTCGC | -0.0398
GGAGCTAC | 0.0233
TAGCCAGA | -0.0655
AGCTAATC | -0.00141
GTCCACGA | -0.38
GTACTCGA | -0.00868
CATATGAA | 0.0626
GAGATCTA | -0.187
TGTTACAA | 0.245
ACAGGGAA | 0.0482
AGCCCAGC | -0.249
AATTGTAA | 0.114
AAGAACCC | -0.116
TAGACGAA | -0.00134
GAGTGTCA | -0.0188
AGAGTGCA | -0.156
GGAGTGTA | 0.168

Sequence | PBM E-score
ATTTACCC | -0.0152
ACCATAAA | 0.00507
CCCAATAC | 0.088
CTTTGGTA | -0.179
ATTAACAC | 0.384
GCCCACCA | -0.345
CCCAAGCG | -0.252
AACTTGTA | 0.125
CTTAAAGA | -0.0303
CATAACAG | 0.0833
AGGAACGG | 0.463
AACTCGAG | -0.0327
GAAGGGAA | -0.213
AAAGATCG | -0.0992
CGTCTCAG | 0.0313
CTTAATAC | 0.286
ACCTCTCC | -0.144
TAAGACTA | 0.00758
GAGAATCC | -0.211
GAATTTGA | -0.213
CGATGATA | 0.0983
CAGGGTCC | -0.0573

Sequence | PBM E-score
ACGATGTA | 0.296
CAGATTAC | 0.237
ACAGTGGA | -0.0998
CATAGCTC | -0.15
CGAGCGTA | -0.0212
CAGAAAGG | 0.0608
TTACGCAA | 0.247
AGTCACAG | 0.0494
CCCCCGCA | -0.214
GTACAGTA | 0.153
AACAGTGA | -0.0719
CAATACCC | -0.00184
TCCGAAGA | -0.311
CGCAATAG | -0.0539
CGATGGCA | -0.0561
ACCGACGG | -0.00788
AACGCATA | 0.166
CTGTGTTC | 0.169
TACGCTCA | -0.0141
CGGAGAAC | -0.237
CAGGGAAG | -0.137
CTTCAATA | 0.207

Sequence | PBM E-score
TGGCGAAA | -0.0484
TAGCACAA | 0.0438
GTGATAAA | -0.0985
GCGTCCAA | -0.0842
ACGTTTGG | -0.144
ACACTGCA | -0.013
ACCGGGGA | -0.27
CTTCTTCC | -0.0601
TGAGATCA | -0.0191
AGCCAACC | -0.226
AAGACGAC | -0.139
CGAGTGCG | -0.257
AGAGACTC | -0.221
CTAGAGTC | -0.22
GTGTAAAC | 0.387
ATGTATCG | 0.279
ATCAGGTG | -0.0867
CTAAAGCA | -0.0303
AAGGCATC | 0.381
CGGAAAAA | 0.0869
